Measurements from PubChem BioAssay AID686979 (National Center for Advancing Translational Sciences (NCATS), 2013).
Among all 420,000 compounds or so, about 50,000 (12%) were called active. Inconclusive means that the source gave no clear call. Such entries were picked first, then a sample of the others. The call rests on the fitted dose curve; in most records, active means well fitted inhibition curve with a large enough effect; inconclusive means small, poorly fitted or top-dose-only effect; inactive means flat fitted curve, though single readings scatter. No potency is given beside an inconclusive call; the fits are too rough.

Experiment: qHTS for Inhibitors of human tyrosyl-DNA phosphodiesterase 1 (TDP1): qHTS in cells in presence of CPT; further: nearly all actives have a fitted effect of over 55% in size
Details: chicken DT40 Tdp1-/-;hTDP1 cells + 20 nM CPT, ATP luminescence, 48 h; activity change, negative = growth inhibition: at 46.2 µM (top of the series) unless noted
Procedure, shortened: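 Chicken DT40 Tdp1-/- cells complemented with human TDP1, 400 cells/well, exposed to compounds plus 20 nM camptothecin for at least 48 h at 37 C; viability read as ATP content by CellTiter-Glo luminescence.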
On the % scale 0 is the no-effect control and ±100 the full control effect; potency means the concentration at half of the fitted maximal effect; tags describe the fitted curve by direction and shape.

SMILES | Potency | activity change, negative = growth inhibition
C/C(N=Nc1nc2ccccc2s1)=N\Nc1ccccc1O | active: 9.2 µM | 
COc1ccc(CCNC(=O)c2cccc(Br)c2)cc1OC | inconclusive [inhibitor, single point] | 
Cc1ccc(CNC(=O)CSc2nc3n[nH]c(C)c3c(=N)n2-c2cccc(C)c2)cc1 | active: 13 µM | 
Cc1ccc2c(c1)CCCN2C(=O)c1cnn2c1NC(=C1CC1)C=C2C(F)F | active: 10 µM | 
Cc1cnc(CNc2ncnc3ccc(-c4ccc(N(C)C)cc4)cc23)cn1 | inconclusive [inhibitor, single point] | 
COc1cccc(CN2CCC2(C)C(=O)NCCc2ccccn2)c1OC (stereo unspecified) |  | inactive: 6.78%
CN1c2ccccc2N(C)C1c1ccc2c(c1)OCO2 | active: 23.1 µM | 
COc1ccc(C2=NOC(Cn3nc(-c4ccccc4)cc3C(=O)NCc3cccs3)C2)cc1 (stereo unspecified) | inconclusive [inhibitor, single point] | 
COc1ccc(-c2csc(N(CCCN(C)C)C(=O)c3ccc(C(C)(C)C)cc3)n2)cc1 | inconclusive [inhibitor, single point] | 
CC(C)(C)c1ccc(C(=O)NCC(=O)OCC(=O)N2CCN(S(=O)(=O)c3ccc(Cl)cc3)CC2)cc1 | inconclusive [inhibitor, single point] | 
Cc1ccccc1-c1nc(N(C)C)c2ccccc2n1 |  | inactive: -26.2%
NC(=O)c1c(NC(=O)CSc2nnc(-c3ccccc3)n2CC2CCCO2)sc2c1CCC2 (stereo unspecified) | inconclusive [inhibitor, partial curve] | 
CCCCNc1nc2c(c(=O)n(Cc3ccc(Cl)c(Cl)c3)c(=O)n2C)n1C | inconclusive [inhibitor, single point] | 
Nc1nc(Nc2ccccc2F)nc(NCc2ccccc2)c1[N+](=O)[O-] | inconclusive [inhibitor, single point] | 
Cc1ccc(N2C(=O)CC(Sc3ncccn3)C2=O)cc1C (stereo unspecified) | inconclusive [inhibitor, single point] | 
CCNC(=O)C1CCCN(C(=O)c2ccc(F)c(Cl)c2)CC1 (stereo unspecified) |  | inactive: 0.0965%
COc1cc(CN2CCN(c3ccccc3C)CC2)cc([N+](=O)[O-])c1O |  | inactive: -3.54%
CC(C)(C)c1ccc(C(=O)NC(Cc2c[nH]c3ccccc23)C(=O)OCC(=O)c2ccc(Cl)cc2)cc1 (stereo unspecified) | inconclusive [inhibitor, single point] | 
CCC(=O)Nc1sc(Cc2ccc3c(c2)OCO3)c(C)c1C(N)=O | inconclusive [inhibitor, single point] | 
N=c1c2c(n(Cc3ccc(Cl)cc3)c3c1CCC3)CCC2 | active: 2.31 µM | 
O=Cc1c[nH]c2ccc(S(=O)(=O)N3CCCCC3)cc12 |  | inactive: -11.1%
COc1cc(OC)cc(-c2cc3nc(C)c(CCC(=O)NC(C)CCc4ccco4)c(C)n3n2)c1 (stereo unspecified) | inconclusive [inhibitor, single point] | 
COCCN(C(=O)CNC(=O)c1cccs1)C(C(=O)NC(C)(C)C)c1ccccc1 (stereo unspecified) |  | inactive: -2.73%

SMILES | Potency | activity change, negative = growth inhibition
COc1ccc(OCc2cc(C(=O)N(C)CCC3CCOCC3)no2)c(Cl)c1 | inconclusive [inhibitor, single point] | 
O=C(Nc1ccc(S(=O)(=O)Nc2nccs2)cc1)c1cc(-c2ccccc2)nc2ccccc12 | inconclusive [inhibitor, single point] | 
COc1ccc2[nH]c(C(=O)N(C)Cc3ccccc3)c(C)c2c1 | inconclusive [inhibitor, single point] | 
Cc1ccc(CNC(=O)c2cccc(-n3cnc4cccnc43)c2)cc1 | inconclusive [inhibitor, single point] | 
O=C(NCCCN1CCCCCC1)[C@@H](c1ccccc1)C1CCCCC1 | active: 10.6 µM | 
O=C(CNc1ccc2ccccc2c1)N/N=C/c1ccc(OC(=O)/C=C/c2ccco2)cc1 | inconclusive [inhibitor, partial curve] | 
Cc1cc(Cl)c(C(=O)Nc2cccc(C(F)(F)F)c2)c(C)n1 |  | inactive: -28.1%
CCOc1ccc2nc(NC(=O)CN3CCC(n4nnc5cc(F)ccc54)CC3)sc2c1 | inconclusive [inhibitor, single point] | 
NC(=S)N/N=C/c1ccccc1OCCSc1ccc(Cl)cc1 | active: 13 µM | 
Cc1oc2cc3oc(=O)cc(C)c3cc2c1C |  | inactive: -18%
COc1cccc(OC)c1/C(O)=C(\C#N)c1nc2ccccc2[nH]1 | inconclusive [inhibitor, partial curve] | 
COc1ccc(N(CC(=O)NCCC2=CCCCC2)S(=O)(=O)c2ccccc2)cc1 | inconclusive [inhibitor, single point] | 
COc1ccc(C(=O)COC(=O)CCN2C(=O)C3CC=CCC3C2=O)c(OC)c1 (stereo unspecified) |  | inactive: -1.64%
Cn1ncc(N=Cc2c(O)ccc3ccccc23)c1C(=O)Nc1cccc(Cl)c1 | inconclusive [inhibitor, single point] | 
COc1ccc(SC[C@H](Cc2ccccc2)N2CC[C@@H](C(C)(C)C)CCC2=O)cc1 | active: 18.4 µM | 
CCOC(=O)c1scc(-c2ccccc2)c1S(=O)(=O)N1CCN(c2ccccc2OC)CC1 | active: 8.2 µM | 
Cn1c(=O)c2cc(NC(=O)NCc3ccccc3)ccc2n1Cc1ccc(Cl)cc1 | inconclusive [inhibitor, single point] | 
O=C1c2ccccc2C(c2nnnn2Cc2ccccc2)N1Cc1ccc2c(c1)OCO2 (stereo unspecified) |  | inactive: -29.1%
O=C(Nc1c(F)cccc1F)c1ccc(-n2cncn2)nc1 |  | inactive: 0.919%
Cc1ccc(OCc2cc(C(=O)N(C)CCc3nc4ccccc4[nH]3)no2)cc1C | active: 14.6 µM | 
Cc1ccc(S(=O)(=O)c2nc(S(C)(=O)=O)sc2N(C)C)cc1 |  | inactive: -8.98%
O=C(Nc1ccccc1C(=O)N/N=C/c1ccncc1)c1ccccc1 | inconclusive [inhibitor, single point] | 
C=CCNc1nc2cc(-c3ccccc3OC)sc2c(=O)n1C | inconclusive [inhibitor, single point] | 
